Data from PubChem BioAssay AID588342 (National Center for Advancing Translational Sciences (NCATS), 2011).
In all, about 360,000 compounds went through this assay and about 25,000 (6.9%) were called active. Inconclusive results, whose numbers are uncertain, are shown with a selection of clear calls. The call rests on the fitted dose curve; in most records, active means well fitted inhibition curve with a large enough effect; inconclusive means small, poorly fitted or top-dose-only effect; inactive means flat fitted curve, though single readings scatter. Potencies of inconclusive entries are doubtful fits and often do not repeat.
Further: nearly all actives have a fitted effect of over 55% in size.
Potency means the concentration at half of the fitted maximal effect; tags describe the fitted curve by direction and shape.
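Wherever activity change, negative = inhibition is given: plate controls were vehicle for no effect and reference inhibitor for full effect.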

Each molecule was assayed against Luciferin 4-monooxygenase (Photinus pyralis) (UniProt P08659) (assay: qHTS profiling assay for firefly luciferase inhibitor/activator using purifed enzyme and Km concentrations of substrates (counterscreen for miR-21 project)). Details: purified FLuc, luminescence inhibition; activity change, negative = inhibition: at 57.5 µM (top of the series).
Sequence of UniProt P08659 (P08659 whole entry, looked up): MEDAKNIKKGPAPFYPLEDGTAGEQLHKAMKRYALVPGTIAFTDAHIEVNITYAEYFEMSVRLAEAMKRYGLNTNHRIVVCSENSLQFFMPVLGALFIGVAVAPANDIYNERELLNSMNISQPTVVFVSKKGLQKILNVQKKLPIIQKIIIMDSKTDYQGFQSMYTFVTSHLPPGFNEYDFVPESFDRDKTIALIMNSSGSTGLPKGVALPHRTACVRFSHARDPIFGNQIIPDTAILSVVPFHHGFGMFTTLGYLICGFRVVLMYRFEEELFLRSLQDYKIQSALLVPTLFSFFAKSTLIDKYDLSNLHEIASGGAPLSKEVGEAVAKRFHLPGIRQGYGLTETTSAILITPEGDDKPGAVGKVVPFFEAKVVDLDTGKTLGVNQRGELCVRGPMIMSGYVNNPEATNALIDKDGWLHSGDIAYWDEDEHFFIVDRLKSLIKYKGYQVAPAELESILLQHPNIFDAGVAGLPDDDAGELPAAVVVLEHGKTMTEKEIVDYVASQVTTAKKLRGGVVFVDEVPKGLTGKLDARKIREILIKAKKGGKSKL
Summary of the method: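 Purified P. pyralis luciferase, 10 nM final, with Km-level 10 uM D-luciferin and 10 uM ATP in 50 mM Tris acetate pH 7.5, 10 mM Mg acetate, 0.01% Tween-20, 0.05% BSA; 6-point qHTS titration about 60 µM downward; luminescence read.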
For `Cc1ccc(NC(=O)COC(=O)c2cccc(N3C(=O)c4ccccc4C3=O)c2)cc1`, the Potency was inconclusive: 4.26 µM [inhibitor, partial curve].
In the case of `COC(=O)c1ccccc1NC(=O)C1=CC(c2ccc(C)cc2)=NS(=O)(=O)N1C`, the “activity change, negative = inhibition” value was inactive: -1.99%.
In the case of `Cc1nc(S/C(=C/c2ccc(-c3ccc(Cl)cc3)o2)C(=O)O)n[nH]1`, the Potency was active: 8.49 µM.
For `COc1ccc(/C=C/C(=O)c2ccc(OC)cc2O)cc1`, the Potency was active: 7.57 µM.
In the case of `CCC1CCc2sc(C(=O)NCC3CCCO3)cc2C1` (configuration not stated), the Potency was active: 5.36 µM.
With `Nc1nnc(-c2ccc(Cl)cc2)o1` the Potency was inconclusive: 37.9 µM [inhibitor, partial curve, poor fit].
For `COc1ccc(/C=N/Nc2ncnc3sc(C)c(C)c23)cc1`, the Potency was active: 19 µM.
With `CCOc1ccc2cc(C#N)c(SCC(=O)N3CCOCC3)nc2c1` the Potency was inconclusive: 37.9 µM [inhibitor, partial curve, poor fit].
In the case of `COc1ccccc1N1CCN(C(=O)c2ccc3c(=O)n4c(nc3c2)CCCCC4)CC1`, the Potency was inconclusive: 19 µM [inhibitor, partial curve, poor fit].
In the case of `O=C(/C=C/c1ccccn1)c1cc(Br)ccc1O`, the Potency was inconclusive: 21.3 µM [inhibitor, partial curve, poor fit].
For `c1ccc(-c2noc(CN3CCc4sccc4C3)n2)cc1`, the Potency was inconclusive: 33.8 µM [inhibitor, single point].
With `Cc1ccc(O)c(-c2cc(C(=O)NCc3ccccc3)[nH]n2)c1` the Potency was inconclusive: 1.51 µM [inhibitor, partial curve, poor fit].
`COc1cc(O)oc1C=Nc1ccc(Cl)cc1Cl` was tested, and the Potency was inconclusive: 26.9 µM [inhibitor, partial curve, poor fit].
With `O=C(NCCOc1ccc(Cl)cc1)c1ccco1` the “activity change, negative = inhibition” value was inactive: -9.85%.
For `COc1ccccc1NC(c1ccc(Cl)cc1)c1nnc(-c2cccc(F)c2)o1` (configuration not stated), the Potency was inconclusive: 15.1 µM [inhibitor, partial curve].
`O=C(Cn1c(SCc2cccc(F)c2)nc2cccnc21)Nc1ccc(F)c(Cl)c1` was tested, and the Potency was inconclusive: 37.9 µM [inhibitor, partial curve, poor fit].
In the case of `COC(=O)CN1C(=S)N(c2ccc(Cl)cc2)C(=O)C1CC(=O)Nc1ccc(Cl)cc1` (configuration not stated), the Potency was inconclusive: 37.9 µM [inhibitor, single point].
`COc1ccccc1C(=O)Nc1cccc(C(=O)c2ccccc2)c1` was tested, and the Potency was active: 16.9 µM.
In the case of `COc1ccc(C2NC(c3ccc(OC)cc3OC)C(C)C(=O)C2C)c(OC)c1` (configuration not stated), the “activity change, negative = inhibition” value was inactive: -4.01%.
`Cc1ccc(OCC(=O)Nc2nnc(S(=O)(=O)N3CCCCC3)s2)cc1` was tested, and the “activity change, negative = inhibition” value was inactive: -18.1%.
In the case of `CCc1cc2c(COC(=O)c3cccc(NS(C)(=O)=O)c3)cc(=O)oc2cc1O`, the “activity change, negative = inhibition” value was inactive: 5.73%.
`CCOC(=O)C1=C(O)/C(=C\c2cc(C)n(-c3ccc(F)cc3)c2C)N=C1C` was tested, and the Potency was inconclusive: 21.3 µM [inhibitor, partial curve, poor fit].
In the case of `c1ccc(CCNc2nc(-c3cccnc3)cs2)cc1`, the Potency was active: 15.1 µM.
In the case of `COc1ccc(C(=O)O)cc1S(=O)(=O)Nc1ccccc1-c1ccccc1`, the “activity change, negative = inhibition” value was inactive: 2.23%.
For `CCc1ccc(N2CC(C(=O)Nc3ccc(S(=O)(=O)Nc4ncccn4)cc3)CC2=O)cc1` (configuration not stated), the Potency was inconclusive: 23.9 µM [inhibitor, partial curve, poor fit].
With `Cc1ccc(C(=O)CCC(=O)Nc2ncccc2O)cc1` the Potency was inconclusive: 37.9 µM [inhibitor, partial curve, poor fit].
In the case of `COc1ccc(S(=O)(=O)N(C)C)cc1NC(=O)CSC(C)C(=O)Nc1cc(C)on1` (configuration not stated), the “activity change, negative = inhibition” value was inactive: 4.24%.
With `CSc1nc2ccc(NC(=O)c3ccco3)cc2s1` the Potency was active: 9.53 µM.
In the case of `COc1ccc(NC(=O)Nc2ccc(F)c(Cl)c2)cc1`, the Potency was inconclusive: 4.78 µM [inhibitor, full curve].
In the case of `Cc1cc(C(F)(F)Cl)n2ncc(-c3ccccn3)c2n1`, the “activity change, negative = inhibition” value was inactive: -4.31%.
For `O=C(N/N=C/c1ccccc1[N+](=O)[O-])c1cccs1`, the Potency was active: 6.75 µM.
`CN1CCN(CC(=O)Nc2cccc(S(=O)(=O)N(C)c3ccccc3)c2)CC1` was tested, and the “activity change, negative = inhibition” value was inactive: 1.32%.
With `C/C(=N/NC(=O)CNC(=O)c1ccc2c(c1)OCO2)c1ccc2c(c1)CCCC2` the Potency was inconclusive: 23.9 µM [inhibitor, partial curve].
For `CN(C)C(=O)COc1ccc2cc(-c3ccccc3)c(=O)oc2c1`, the Potency was inconclusive: 6.01 µM [inhibitor, partial curve].
For `N=C1N(/N=C/c2ccccc2)C(=Nc2ccccc2)C(=S)N1c1ccccc1`, the Potency was inconclusive: 21.3 µM [inhibitor, single point].
With `O=C(N/N=C\c1ccc(Cl)cc1Cl)c1sccc1-n1cccc1` the Potency was inconclusive: 33.8 µM [inhibitor, partial curve, poor fit].
`CCN(CC)c1ccc(/C=N/N2CCOCC2)cc1` was tested, and the Potency was active: 8.49 µM.
With `CCOc1ccccc1NC(=O)NCc1ccccc1F` the Potency was inconclusive: 37.9 µM [inhibitor, single point].
`CN(C(=O)c1ccno1)c1nnc(-c2ccccn2)s1` was tested, and the Potency was active: 15.1 µM.
`O=C(Nc1ccc(S(=O)(=O)N2CCOCC2)cc1)c1ccc(Br)o1` was tested, and the “activity change, negative = inhibition” value was inactive: 0.701%.
For `COc1cccc(NC(=O)CSc2nc3ccc(NC(=O)c4cccs4)cc3s2)c1`, the Potency was inconclusive: 6.01 µM [inhibitor, partial curve, poor fit].
In the case of `CC1(C)Cc2nc3sc4c(SCC(=O)O)ncnc4c3cc2CO1`, the Potency was active: 0.379 µM.
In the case of `COc1ccc(/C=N/NC(=O)C(=O)N2CCCC2)cc1`, the Potency was inconclusive: 26.9 µM [inhibitor, partial curve, poor fit].
`N#Cc1nc(-c2cccs2)oc1NCCc1ccccc1` was tested, and the Potency was active: 19 µM.
In the case of `C/C(CC(=O)Nc1c(C)cc(C)cc1C)=N\NC(=O)Cc1ccccc1`, the “activity change, negative = inhibition” value was inactive: 1.69%.
In the case of `Cc1cc(Br)ccc1NC(=O)CN(C)Cc1cccs1`, the Potency was inconclusive: 37.9 µM [inhibitor, partial curve, poor fit].
With `Cc1cccc(C(=O)Nc2sc3c(c2C(=O)N2CCCCC2)CCC(C)C3)c1` (configuration not stated) the Potency was inconclusive: 21.3 µM [inhibitor, partial curve, poor fit].
